The values that follow come from paper PMC4336329 (PLoS ONE, 2015).

About 2,200 (0.71%) of roughly 310,000 compounds showed an effect of 50% or more. Effects have a minus sign here. The list shows a part of the results.

For the test, the target named is human ether-à-go-go-related gene (hERG) potassium channel (human, UniProt Q12809). Put plainly: primary screen, population patch clamp on CHO cells stably expressing hERG.
Sequence of human ether-à-go-go-related gene (hERG) potassium channel (Q12809 whole entry, looked up): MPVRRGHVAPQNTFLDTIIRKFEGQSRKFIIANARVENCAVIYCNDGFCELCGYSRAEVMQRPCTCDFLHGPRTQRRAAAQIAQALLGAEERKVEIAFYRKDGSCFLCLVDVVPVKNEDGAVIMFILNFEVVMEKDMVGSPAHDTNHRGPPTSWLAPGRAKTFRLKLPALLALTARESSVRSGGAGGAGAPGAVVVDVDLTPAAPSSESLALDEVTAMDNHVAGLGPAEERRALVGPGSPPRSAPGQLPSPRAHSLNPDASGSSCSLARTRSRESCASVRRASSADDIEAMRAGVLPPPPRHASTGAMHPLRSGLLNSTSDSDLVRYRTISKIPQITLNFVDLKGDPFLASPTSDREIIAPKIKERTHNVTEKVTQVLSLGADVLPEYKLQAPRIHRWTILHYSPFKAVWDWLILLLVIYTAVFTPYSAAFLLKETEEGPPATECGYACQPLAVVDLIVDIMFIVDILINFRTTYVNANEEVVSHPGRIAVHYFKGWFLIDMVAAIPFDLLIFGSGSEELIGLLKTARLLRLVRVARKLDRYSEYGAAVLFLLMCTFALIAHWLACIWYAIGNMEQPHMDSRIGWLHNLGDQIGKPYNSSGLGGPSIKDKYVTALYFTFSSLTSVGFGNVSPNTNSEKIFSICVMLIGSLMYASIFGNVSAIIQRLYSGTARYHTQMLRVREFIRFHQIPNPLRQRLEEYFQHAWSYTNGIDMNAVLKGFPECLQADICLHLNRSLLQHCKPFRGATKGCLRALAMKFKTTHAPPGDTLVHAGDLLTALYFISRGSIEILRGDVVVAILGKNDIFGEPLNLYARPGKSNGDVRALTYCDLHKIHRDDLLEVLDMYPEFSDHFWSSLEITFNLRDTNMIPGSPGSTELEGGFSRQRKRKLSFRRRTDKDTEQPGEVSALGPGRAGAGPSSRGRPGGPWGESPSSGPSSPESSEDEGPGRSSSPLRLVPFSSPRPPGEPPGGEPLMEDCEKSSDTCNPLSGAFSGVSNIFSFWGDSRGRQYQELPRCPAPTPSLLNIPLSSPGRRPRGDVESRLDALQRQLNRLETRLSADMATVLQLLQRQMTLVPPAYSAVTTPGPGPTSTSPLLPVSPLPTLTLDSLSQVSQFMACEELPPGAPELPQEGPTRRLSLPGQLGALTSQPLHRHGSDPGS
Consider `O=C1CC(=C2c3ccccc3-c3ccccc32)C(=O)N1CCN1CCN(c2ccccc2)CC1`, for which the “hERG current change (%, negative = inhibition) at 1uM” value came to 7.75%. With `COc1ccc(CC(NC(C)=O)C(=O)NC2CCN(C(=O)NCc3ccccc3)CC2)cc1OC` (centres unmarked) the figure was 4.4%; with `Cn1cnc([N+](=O)[O-])c1Oc1ccccc1`, 14.2%; with `Cc1ccn(C(C)CC(=O)N2CCc3ccccc32)n1` (centres unmarked), 17.7%. For the molecule `COc1cc(OC)c(CN2CCc3c([nH]c4ccccc34)C2)cc1Br`, the “hERG current change (%, negative = inhibition) at 1uM” value was -7.57%. Consider `Cc1cc(-c2onc(C)c2C(=O)Oc2ccc(Cl)cc2)no1`, for which the “hERG current change (%, negative = inhibition) at 1uM” value is given as 8.73%. In the case of `O=C(COc1ccc(Cl)cc1)N1CCN(c2ncccn2)CC1` it was 2.43%; in that of `CCN(CC(=O)NC1CCS(=O)(=O)C1)C(C)C(=O)Nc1ccc(F)cc1` (centres unmarked), 5.2%; in that of `CC1(C)Cc2ccccc2C(Nn2cnnc2)=N1`, 10.9%. In the case of `Cc1nn(C(C)C)c(C)c1CN1CCCC(C(=O)c2cccc(OC(C)C)c2)C1` (centres unmarked) it was -14.4%. With `Cc1ccc(N(C(=O)CNC(=O)c2ccco2)C(C(=O)NC2CCCC2)c2cccnc2)cc1` (centres unmarked) the figure was -14.5%. As to `Cc1ccc(C)c(N2CCN(S(=O)(=O)c3cc4c(cc3C)NC(=O)CO4)CC2)c1`, the “hERG current change (%, negative = inhibition) at 1uM” value is on record as 8.57%. In the case of `Nc1c(S(=O)(=O)c2cccc(Cl)c2)c2nc3ccccc3nc2n1/N=C/c1ccc(O)c(O)c1` it was 7.06%; in that of `CS(=O)(=O)NCCCCNc1ccc(C(F)(F)F)cc1[N+](=O)[O-]`, -5.13%. With `COc1ccc(C(=O)COC(=O)Cn2c(C)csc2=O)c(OC)c1` the figure was 5.35%. In the case of `Cn1cccc1/C=N/NC(N)=S` it was 7.01%; in that of `COc1ccc(C)cc1N(CC(N)=O)S(=O)(=O)c1ccc(C)cc1`, -3.84%; in that of `O=C(OCN1C(=O)c2ccccc2C1=O)c1ccccc1`, 0.0125%.

In the case of `Cc1ccc(OCC(=O)Nc2ccc(NC(=O)c3ccccc3)c(C)c2)cc1`, the “hERG current change (%, negative = inhibition) at 1uM” value is reported as 11.6%. In the case of `COc1ccc(NC(=O)CCN2C(=O)C3C4CCC(C4)C3C2=O)cc1` (centres unmarked) it was 2.12%; in that of `O=[N+]([O-])c1ccccc1CN1CC=C(c2ccc(F)cc2)CC1`, 12.9%. In the case of `O=C1CNc2ccc(C(=O)N3CCN(c4ccccn4)CC3)cc2N1` it was 18.6%; in that of `Cn1c(C(=O)N2CCC(C(=O)N3CCC4(CC3)OCCO4)CC2)cc2sccc21`, 9%; in that of `Cc1oc(-c2ccccc2)cc1C(N)=O`, 11.2%. `CCOC(=O)N1CCN(C(=O)c2cc(Cl)c(Cl)cc2C(=O)O)CC1`: the “hERG current change (%, negative = inhibition) at 1uM” value was 19%. With `CC1=NOC(=O)/C1=C\c1ccccc1` the figure was 7.39%; with `COCCn1c(=NC(=O)CSCC(=O)Nc2cc(C)on2)sc2cc(C(=O)OC)ccc21`, 1.04%. In the case of `COC(=O)CCCCCc1ccc(C(C)=O)s1` it was 4.86%; in that of `COC(=O)c1cccc(CN2C(=O)SC(Nc3ccccc3)C2=O)c1` (centres unmarked), -0.398%. As to `O=C(NCCCO)/C(=C\c1cn(-c2ccccc2)nc1-c1cccnc1)NC(=O)c1ccccc1`, the “hERG current change (%, negative = inhibition) at 1uM” value is on record as 3.53%.

On to `CC(C)(O)CCCC(C)(O)c1ccc(C(=O)O)cc1O` (centres unmarked), for which the “hERG current change (%, negative = inhibition) at 1uM” value turned out to be 8.89%. With `Cc1nc(SCC(=O)Nc2c(C)nn(C)c2C)c2cnn(-c3ccccc3)c2n1` the figure was 17.9%; with `Cn1c(CN2CCCC2)nc2cc(NC(=O)COc3ccc([N+](=O)[O-])cc3)ccc21`, 0.265%; with `O=C(COC(=O)c1ccc(Cl)nc1)Nc1c(Cl)cccc1C(F)(F)F`, 13.6%. In the case of `Cc1ccc(C)c(N2CCN(C(=O)CCS(=O)(=O)c3cccc4nonc34)CC2)c1` it was 3.92%. As to `O=C(NC(Cc1ccccc1)C(=O)N1CCCCCC1)c1ccccc1` (centres unmarked), the “hERG current change (%, negative = inhibition) at 1uM” value was -1.66%. In the case of `Cc1ccc(C(c2nnnn2CS(=O)(=O)c2ccc(C)cc2)N2CCC(C(N)=O)CC2)cc1` (centres unmarked) it was -17.2%; in that of `CC(=C/C(=O)O)/C(=C\c1ccc(Br)o1)C(=O)O`, 6.83%.

Turning to `Nc1nnnn1/N=C/c1cccc(O)c1`, the “hERG current change (%, negative = inhibition) at 1uM” value was 16.6%.

`Cn1c(/C(C#N)=N/O)nc2ccccc21`: the “hERG current change (%, negative = inhibition) at 1uM” value was -1.03%. With `COc1ccc(-n2nc(C(=O)NCC(=O)N3CCCCCC3)c3ccccc3c2=O)cc1` the figure was 15.8%. With `COc1cc(C(C(=O)NCc2ccccc2)N(Cc2ccco2)C(=O)c2cnccn2)cc(OC)c1OC` (centres unmarked) the figure was 14.7%. With `Cc1cc(Cl)c(S(=O)(=O)Nc2ccc3c(c2)OCO3)cc1OCC(=O)NC1CCCCC1` the figure was 24.1%; with `O=C(NCCOc1nc(N2CCOCC2)nc(N2CCOCC2)n1)Nc1ccc(Cl)cc1`, 15.9%.
